# Measured values reported in the supplement of paper PMC8728848.
# Some of the results follow.
# B1: PX9961J-bvu-499-24-499 (Bacteroides vulgatus) (protein)
# chain: LNTDPSTAVPSDDAIKNIDDAQVALNGIYRLASAHSYYGDNYLYYADCRGEDVQARINKGAGRRVSPYYFFDVTADDNFNITLVWNQPYKVIHQANSLIEKLDAGNAGNARPEEVARIKSEALAMRGLALFDLTRLFGMPYTLDNGASLGVPIEIQTTLEDHAPERNTVAQCYEQVLKDLNDALGGLTKEKHDAYMNYWSVKALLSRVYLYMNDNENALKCAEEVINDNGGIYRLFTHDEYPSVWGKDFNSESLFEFYFTMSEPSGGSGGEGAPMVYADNVKDWNNLILTKAYLDLLNEDPEDVRHVFPHLPENAVADTLPVAAKGQPKYLIKYPGKSGSVTDAVSTVNPQDNDLCILRLSEVYLNAAEAAFKIGNTEKALTYLNAIVTRANPAKSVTSADLSLERILKERRKELVGEGHAFFDYMRNGKSVDRSGGWHLTMPEDARVIAPSDPRVALPIPQTEIDANPNIVQNPR
# What was measured:
# Assay in all cases: glycan array binding signal (z-score within array); higher = stronger binding
# Conditions in all cases: glycan notation: IUPAC condensed, linker removed
# [1] = target: Neu5Ac(a2-3)Gal(b1-4)GlcNAc(b1-6)GalNAc
# How it was run: (§1)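 From the Consortium for Functional Glycomics database, 3228 arrays were curated, keeping only those whose protein sequence was available. Binding is given as a within-array Z-score averaged across arrays sharing a protein sequence and across linkers. Negative Z-scores can be read as non-binding.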
# [2] = target: Neu5Ac(a2-3)Gal(b1-4)GlcNAc(b1-6)[Gal(b1-3)]GalNAc
# How it was run: as §1
# [3] = target: Neu5Ac(a2-3)Gal(b1-4)GlcNAc(b1-6)[Neu5Ac(a2-3)Gal(b1-3)]GalNAc
# How it was run: as §1
# [4] = target: Neu5Ac(a2-3)Gal(b1-4)GlcNAc6S
# How it was run: as §1
# [5] = target: Neu5Ac(a2-3)Gal(b1-4)[Fuc(a1-3)]GlcNAc
# How it was run: as §1
# [6] = target: Neu5Ac(a2-3)Gal(b1-4)[Fuc(a1-3)]GlcNAc(b1-2)Man
# How it was run: as §1
# [7] = target: Neu5Ac(a2-3)Gal(b1-4)[Fuc(a1-3)]GlcNAc(b1-3)Gal
# How it was run: as §1
# [8] = target: Neu5Ac(a2-3)Gal(b1-4)[Fuc(a1-3)]GlcNAc(b1-3)Gal(b1-4)GlcNAc
# How it was run: as §1
# [9] = target: Neu5Ac(a2-3)Gal(b1-4)[Fuc(a1-3)]GlcNAc(b1-3)Gal(b1-4)[Fuc(a1-3)]GlcNAc(b1-3)Gal(b1-4)[Fuc(a1-3)]GlcNAc
# How it was run: as §1
# [10] = target: Neu5Ac(a2-3)Gal(b1-4)[Fuc(a1-3)]GlcNAc(b1-3)GalNAc
# How it was run: as §1
# [11] = target: Neu5Ac(a2-3)Gal(b1-4)[Fuc(a1-3)]GlcNAc(b1-6)[Gal(b1-3)]GalNAc
# How it was run: as §1
# [12] = target: Neu5Ac(a2-3)Gal(b1-4)[Fuc(a1-3)]GlcNAc(b1-6)[Neu5Ac(a2-3)Gal(b1-3)]GalNAc
# How it was run: as §1
# [13] = target: Neu5Ac(a2-3)Gal(b1-4)[Fuc(a1-3)]GlcNAc6S
# How it was run: as §1
# [14] = target: Neu5Ac(a2-3)Gal6S(b1-4)GlcNAc
# How it was run: as §1
# [15] = target: Neu5Ac(a2-3)Gal6S(b1-4)[Fuc(a1-3)]GlcNAc
# How it was run: as §1
# Neu5Ac(a2-3)GalNAc = target: Neu5Ac(a2-3)GalNAc
# How it was run: as §1
# [16] = target: Neu5Ac(a2-3)GalNAc(b1-4)GlcNAc
# How it was run: as §1
# [17] = target: Neu5Ac(a2-3)[GalNAc(b1-4)]Gal(b1-4)Glc
# How it was run: as §1
# [18] = target: Neu5Ac(a2-3)[GalNAc(b1-4)]Gal(b1-4)GlcNAc
# How it was run: as §1
# [19] = target: Neu5Ac(a2-3)[GalNAc(b1-4)]Gal(b1-4)GlcNAc(b1-3)GalNAc
# How it was run: as §1
# [20] = target: Neu5Ac(a2-3)[Neu5Ac(a2-6)]GalNAc
# How it was run: as §1
# Neu5Ac(a2-6)Gal = target: Neu5Ac(a2-6)Gal
# How it was run: as §1
# [21] = target: Neu5Ac(a2-6)Gal(b1-3)GlcNAc(b1-3)[Gal(b1-4)GlcNAc(b1-6)]Gal(b1-4)Glc
# How it was run: as §1
# Neu5Ac(a2-6)Gal(b1-4)Glc = target: Neu5Ac(a2-6)Gal(b1-4)Glc
# How it was run: as §1
# [22] = target: Neu5Ac(a2-6)Gal(b1-4)GlcNAc
# How it was run: as §1
# [23] = target: Neu5Ac(a2-6)Gal(b1-4)GlcNAc(b1-2)Man
# How it was run: as §1
# [24] = target: Neu5Ac(a2-6)Gal(b1-4)GlcNAc(b1-2)Man(a1-3)Man(b1-4)GlcNAc(b1-4)GlcNAc
# How it was run: as §1
# [25] = target: Neu5Ac(a2-6)Gal(b1-4)GlcNAc(b1-2)Man(a1-3)[Gal(b1-4)GlcNAc(b1-2)Man(a1-6)]Man(b1-4)GlcNAc(b1-4)GlcNAc
# How it was run: as §1
# [26] = target: Neu5Ac(a2-6)Gal(b1-4)GlcNAc(b1-2)Man(a1-3)[GlcNAc(b1-2)Man(a1-6)]Man(b1-4)GlcNAc(b1-4)GlcNAc
# How it was run: as §1
# [27] = target: Neu5Ac(a2-6)Gal(b1-4)GlcNAc(b1-2)Man(a1-3)[GlcNAc(b1-4)][Neu5Ac(a2-6)Gal(b1-4)GlcNAc(b1-2)Man(a1-6)]Man(b1-4)GlcNAc(b1-4)GlcNAc
# How it was run: as §1
# [28] = target: Neu5Ac(a2-6)Gal(b1-4)GlcNAc(b1-2)Man(a1-3)[Man(a1-6)]Man(b1-4)GlcNAc(b1-4)GlcNAc
# How it was run: as §1
# [29] = target: Neu5Ac(a2-6)Gal(b1-4)GlcNAc(b1-2)Man(a1-3)[Neu5Ac(a2-3)Gal(b1-4)GlcNAc(b1-2)Man(a1-6)]Man(b1-4)GlcNAc(b1-4)GlcNAc
# How it was run: as §1
# [30] = target: Neu5Ac(a2-6)Gal(b1-4)GlcNAc(b1-2)Man(a1-3)[Neu5Ac(a2-6)Gal(b1-4)GlcNAc(b1-2)Man(a1-6)]Man(b1-4)GlcNAc(b1-4)GlcNAc
# How it was run: as §1
# [31] = target: Neu5Ac(a2-6)Gal(b1-4)GlcNAc(b1-2)Man(a1-3)[Neu5Ac(a2-6)Gal(b1-4)GlcNAc(b1-2)Man(a1-6)]Man(b1-4)GlcNAc(b1-4)[Fuc(a1-6)]GlcNAc
# How it was run: as §1
# [32] = target: Neu5Ac(a2-6)Gal(b1-4)GlcNAc(b1-2)Man(a1-6)Man(b1-4)GlcNAc(b1-4)GlcNAc
# How it was run: as §1
# [33] = target: Neu5Ac(a2-6)Gal(b1-4)GlcNAc(b1-2)Man(a1-6)[Gal(b1-4)GlcNAc(b1-2)Man(a1-3)]Man(b1-4)GlcNAc(b1-4)GlcNAc
# How it was run: as §1
# [34] = target: Neu5Ac(a2-6)Gal(b1-4)GlcNAc(b1-2)Man(a1-6)[GlcNAc(b1-2)Man(a1-3)]Man(b1-4)GlcNAc(b1-4)GlcNAc
# How it was run: as §1
# [35] = target: Neu5Ac(a2-6)Gal(b1-4)GlcNAc(b1-2)Man(a1-6)[Man(a1-3)]Man(b1-4)GlcNAc(b1-4)GlcNAc
# How it was run: as §1
# [36] = target: Neu5Ac(a2-6)Gal(b1-4)GlcNAc(b1-2)[Neu5Ac(a2-6)Gal(b1-4)GlcNAc(b1-4)]Man(a1-3)[GlcNAc(b1-4)][Neu5Ac(a2-6)Gal(b1-4)GlcNAc(b1-2)[Neu5Ac(a2-6)Gal(b1-4)GlcNAc(b1-6)]Man(a1-6)]Man(b1-4)GlcNAc(b1-4)GlcNAc
# How it was run: as §1
# [37] = target: Neu5Ac(a2-6)Gal(b1-4)GlcNAc(b1-2)[Neu5Ac(a2-6)Gal(b1-4)GlcNAc(b1-4)]Man(a1-3)[GlcNAc(b1-4)][Neu5Ac(a2-6)Gal(b1-4)GlcNAc(b1-4)Man(a1-6)]Man(b1-4)GlcNAc(b1-4)GlcNAc
# How it was run: as §1
# [38] = target: Neu5Ac(a2-6)Gal(b1-4)GlcNAc(b1-2)[Neu5Ac(a2-6)Gal(b1-4)GlcNAc(b1-6)]Man(a1-6)[Neu5Ac(a2-6)Gal(b1-4)GlcNAc(b1-2)Man(a1-3)][GlcNAc(b1-4)]Man(b1-4)GlcNAc(b1-4)GlcNAc
# How it was run: as §1
# [39] = target: Neu5Ac(a2-6)Gal(b1-4)GlcNAc(b1-3)Gal(b1-3)GlcNAc
# How it was run: as §1
# [40] = target: Neu5Ac(a2-6)Gal(b1-4)GlcNAc(b1-3)Gal(b1-4)GlcNAc
# How it was run: as §1
# [41] = target: Neu5Ac(a2-6)Gal(b1-4)GlcNAc(b1-3)Gal(b1-4)GlcNAc(b1-2)Man(a1-3)[Neu5Ac(a2-6)Gal(b1-4)GlcNAc(b1-3)Gal(b1-4)GlcNAc(b1-2)Man(a1-6)]GalNAc
# How it was run: as §1
# [42] = target: Neu5Ac(a2-6)Gal(b1-4)GlcNAc(b1-3)Gal(b1-4)GlcNAc(b1-3)Gal(b1-4)GlcNAc
# How it was run: as §1
# [43] = target: Neu5Ac(a2-6)Gal(b1-4)GlcNAc(b1-3)Gal(b1-4)GlcNAc(b1-3)Gal(b1-4)GlcNAc(b1-2)Man(a1-3)[Neu5Ac(a2-6)Gal(b1-4)GlcNAc(b1-3)Gal(b1-4)GlcNAc(b1-3)Gal(b1-4)GlcNAc(b1-2)Man(a1-6)]GalNAc
# How it was run: as §1
binder,measurement,setting,value
B1,glycan array binding signal (z-score),[1],0.228
same,glycan array binding signal (z-score),[2],-0.033
same,glycan array binding signal (z-score),[3],-0.467
same,glycan array binding signal (z-score),[4],0.992
same,glycan array binding signal (z-score),[5],-0.732
same,glycan array binding signal (z-score),[6],-0.099
same,glycan array binding signal (z-score),[7],-0.441
same,glycan array binding signal (z-score),[8],-0.556
same,glycan array binding signal (z-score),[9],-0.297
same,glycan array binding signal (z-score),[10],0.272
same,glycan array binding signal (z-score),[11],-0.279
same,glycan array binding signal (z-score),[12],1.88
same,glycan array binding signal (z-score),[13],0.162
same,glycan array binding signal (z-score),[14],-0.275
same,glycan array binding signal (z-score),[15],-0.101
same,glycan array binding signal (z-score),Neu5Ac(a2-3)GalNAc,-0.625
same,glycan array binding signal (z-score),[16],-0.474
same,glycan array binding signal (z-score),[17],-0.277
same,glycan array binding signal (z-score),[18],-0.251
same,glycan array binding signal (z-score),[19],-0.342
same,glycan array binding signal (z-score),[20],-0.372
same,glycan array binding signal (z-score),Neu5Ac(a2-6)Gal,-0.231
same,glycan array binding signal (z-score),[21],-0.441
same,glycan array binding signal (z-score),Neu5Ac(a2-6)Gal(b1-4)Glc,-0.193
same,glycan array binding signal (z-score),[22],-0.389
same,glycan array binding signal (z-score),[23],-0.695
same,glycan array binding signal (z-score),[24],0.368
same,glycan array binding signal (z-score),[25],0.647
same,glycan array binding signal (z-score),[26],0.716
same,glycan array binding signal (z-score),[27],-0.178
same,glycan array binding signal (z-score),[28],-0.88
same,glycan array binding signal (z-score),[29],-0.255
same,glycan array binding signal (z-score),[30],-0.062
same,glycan array binding signal (z-score),[31],0.957
same,glycan array binding signal (z-score),[32],-0.353
same,glycan array binding signal (z-score),[33],-0.456
same,glycan array binding signal (z-score),[34],-0.17
same,glycan array binding signal (z-score),[35],0.007
same,glycan array binding signal (z-score),[36],-0.153
same,glycan array binding signal (z-score),[37],0.359
same,glycan array binding signal (z-score),[38],-0.411
same,glycan array binding signal (z-score),[39],-0.368
same,glycan array binding signal (z-score),[40],-0.402
same,glycan array binding signal (z-score),[41],-0.063
same,glycan array binding signal (z-score),[42],-0.689
same,glycan array binding signal (z-score),[43],0.564
